In US20040023994A1 (priority 2002, published 2004):
Like-named read-outs stand apart in the source and are kept apart here.

Key:
NCI-H322M [1] = conditions: Non-Small Cell Lung, NCI database, cited from earlier work; for CC50: read-out: LC50 (the source's name)
NCI-H322M [2] = tested on: NCI-H322M

SMILES | CC50 (NCI-H322M [1]) [µM] | GI50 (NCI-H322M [1]) [µM] | TGI (NCI-H322M [1]) [µM] | GI50 (NCI-H322M [2]; Homo sapiens, 48 h) [µM] | CC50 (NCI-H322M [2]; Homo sapiens, 48 h, read-out: LC50) [µM] | TGI (NCI-H322M [2]; Non-Small Cell Lung, 48 h) [µM] | GI50 (NCI-H322M [2]; Non-Small Cell Lung, 48 h) [µM] | CC50 (NCI-H322M [2]; read-out: LC50, Non-Small Cell Lung, 48 h) [µM]
Sc1ncnc2nc[nH]c12 [6-MP, 6-mercaptopurine] | > 100 | 7.69 | >100 |  |  |  |  | 
Nc1nc2nc[nH]c2c(=S)[nH]1 [6-TG, 6-thioguanine] | > 100 | 7.33 | >100 |  |  |  |  | 
CC(=O)C=CSc1ncnc2nc[nH]c12 [cis-AVTP, 6-(2-acetylvinylthio) purine] |  |  |  | 2.49 | 68.8 | 15.6 |  | 
CC(=O)C=CSc1nc(N)nc2nc[nH]c12 [trans-AVTG, 6-(2-acetylvinylthio) guanine] |  |  |  |  |  | 22.2 | 2.52 | > 100
